Measured values reported in PubChem BioAssay AID1996.
Values after ≈ are worked out from the molar mass of the structure shown.

conditions: buffer; pH 7.4; 200.0 µM

Compound | solubility kinetic
COc1cc(CN2CCc3ccccc3C2)ccc1O | 27.8 µg/mL (≈ 103 µM)
Nc1nc2ccc(OC(F)(F)F)cc2s1 | 22.1 µg/mL (≈ 94.4 µM)
COc1cc(CN=C(C)c2c(O)n(C)c(=O)n(C)c2=O)cc(OC)c1 | 2 µg/mL (≈ 5.76 µM)
Cl.NCCOc1ccc(C2CCCCC2)cc1 | 30.5 µg/mL
CCOC(=O)Nc1ccc(Cc2ccncc2)cc1 | > 38.4 µg/mL
Cc1ccccc1NC(=O)c1ccc2c(c1)C(=O)N(CC(C)C)C2=O | < 0.4 µg/mL
COc1ccc(OC)c(S(=O)(=O)NC(C)CCc2ccccc2)c1 (stereo unspecified) | 26.4 µg/mL (≈ 75.5 µM)
COc1ccccc1C(=O)Nc1ccc2ccccc2c1 | 3.2 µg/mL (≈ 11.5 µM)
CC(=O)Nc1nc(CCN2C(=O)c3ccccc3C2=O)cs1 | > 47.3 µg/mL
O=C(NC1CCCCC1)N1CCN(c2ccccc2Cl)CC1 | 45.5 µg/mL (≈ 141 µM)
CCCCn1c(N)c(N(C)C(=O)c2cc3c(F)cccc3s2)c(=O)[nH]c1=O | 5.8 µg/mL (≈ 14.9 µM)
CN1CCN(NC(=O)/C=C/c2cccc([N+](=O)[O-])c2)CC1 | > 43.5 µg/mL
COc1ccc(C(=O)N2CCN(c3ncccn3)CC2)cc1 | > 44.8 µg/mL
Cc1ccc(CC2CC(=O)N(c3ncccn3)C2=O)cc1 (stereo unspecified) | > 42.2 µg/mL
COc1ccc(Cl)cc1NC(=O)C[n+]1cccc(C)c1.[Cl-] | > 49.1 µg/mL
Fc1ccc(-c2cn3ccccc3n2)cc1 | 29.9 µg/mL (≈ 141 µM)
